Among all 110,000 compounds or so, about 230 (0.21%) showed an effect of 50% or more. The list shows a part of the results.
biological target: DPAP1 (Plasmodium falciparum, UniProt Q8IIJ9); test: primary screen, percent inhibition; read by cleavage of a fluorogenic dipeptide substrate; higher = more effect of the substance; design: species or system P. falciparum D10 trophozoite lysates; single well
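Note: 30 min substrate incubation versus DMSO and 10 µM JCP410 controls.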

DPAP1, sequence (Q8IIJ9 whole entry, looked up): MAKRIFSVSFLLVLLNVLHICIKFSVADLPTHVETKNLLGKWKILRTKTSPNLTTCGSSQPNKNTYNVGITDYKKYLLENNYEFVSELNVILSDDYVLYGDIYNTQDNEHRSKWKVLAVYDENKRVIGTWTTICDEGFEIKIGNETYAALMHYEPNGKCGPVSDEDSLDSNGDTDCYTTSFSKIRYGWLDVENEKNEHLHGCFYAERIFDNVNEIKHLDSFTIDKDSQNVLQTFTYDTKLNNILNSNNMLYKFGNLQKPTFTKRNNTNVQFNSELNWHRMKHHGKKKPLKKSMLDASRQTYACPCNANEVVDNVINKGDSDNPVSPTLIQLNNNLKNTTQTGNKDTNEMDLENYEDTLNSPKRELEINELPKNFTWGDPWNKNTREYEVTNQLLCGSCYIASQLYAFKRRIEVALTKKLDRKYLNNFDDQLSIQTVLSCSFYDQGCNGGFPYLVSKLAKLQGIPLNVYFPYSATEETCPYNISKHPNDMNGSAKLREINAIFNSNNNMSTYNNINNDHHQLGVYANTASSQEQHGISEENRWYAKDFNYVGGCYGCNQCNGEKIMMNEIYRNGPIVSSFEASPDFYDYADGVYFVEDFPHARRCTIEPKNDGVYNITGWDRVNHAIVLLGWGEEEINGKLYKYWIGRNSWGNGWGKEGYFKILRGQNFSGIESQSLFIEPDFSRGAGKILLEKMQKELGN

Going from `O=C(Nc1ccc(Cl)cn1)C1c2ccccc2C(=O)N(C2CCCC2)C1c1cccs1` (stereo not shown) to `O=C(NCC1CCCO1)C1c2ccccc2Oc2ccccc21` (stereo not shown), the “% Inhibition @ 10 uM” value rises from -5.3% to -3.49%.

First: N#Cc1c2ccccc2c2nc(-c3ccccc3)c3cc(Cl)ccc3n12
Second: N#CC1=C(N)Oc2[nH]nc(-c3ccccc3)c2C1c1cccc(C(F)(F)F)c1 (stereo not shown)
The “% Inhibition @ 10 uM” value of the first is lower: -1.07% for the first, 5.83% for the second.

Going from `COc1cccc(Nc2ccc3noc4c3c2C(=O)c2ccccc2-4)c1` to `COc1cccc(NC2=C(Cl)C(=O)N(c3ccc(C)cc3)C2=O)c1`, the “% Inhibition @ 10 uM” value falls from -1.15% to -2.77%.

Going from `Cc1ccc(C(=O)O)cc1NC(=O)C1C2CCC(C2)C1C(=O)O` (stereo not shown) to `O=C(O)c1cc(C(=O)O)cc(N2C(=O)c3ccccc3C2=O)c1`, the “% Inhibition @ 10 uM” value falls from 5.44% to 3.25%.

Going from `Cc1ccccc1OC(C)C(=O)Nc1cccnc1` (stereo not shown) to `CC(=O)Nc1nc(C)nc(-c2ccccc2)c1C(C)=O`, the “% Inhibition @ 10 uM” value rises from -5.92% to -3.97%.

Compared with `CCC(C)Oc1ccccc1/C=C1/SC(=O)N(CC(=O)N2CCCCC2)C1=O` (stereo not shown), `O=c1c(Cc2ccccc2)c(N2CCCCC2)nc2n1CCCS2` is higher in “% Inhibition @ 10 uM” value: -3.1% for the first, 2.21% for the second.

First: CC1CCCCN1CCCNC(=O)C1CCCN(c2nnc(-n3cccc3)s2)C1 (stereo not shown)
Second: Cc1oc(-c2cccc(Cl)c2)nc1CN1CCC(C(=O)NCCCN2CCN(C)CC2)CC1
The “% Inhibition @ 10 uM” value of the first is higher: 2.76% for the first, -1.05% for the second.

First: CCc1c(C)c(C#N)c2nc3ccccc3n2c1N1CCN(C)CC1
Second: CC1CN(c2c3c(c(C#N)c4nc5ccccc5n24)CCC3)CC(C)O1 (stereo not shown)
The “% Inhibition @ 10 uM” value of the first is lower: 5.8% for the first, 18.2% for the second.

Going from `Nc1c(-c2nc(-c3ccccc3)no2)nnn1-c1ccccc1C(F)(F)F` to `CCCn1c(SCc2nc(-c3ccc(OC)cc3)no2)nnc1-c1ccccc1`, the “% Inhibition @ 10 uM” value falls from -1.87% to -4.02%.

Going from `CCc1ccc(N2CC(C(=O)Nc3cccc(C(F)(F)F)c3)CC2=O)cc1` (stereo not shown) to `O=C(CSCc1cccc(Br)c1)Nc1ccc(F)cc1`, the “% Inhibition @ 10 uM” value falls from 5.24% to 2.38%.

First: COc1ccc(NC(=O)c2cc(Cl)ccc2N)cc1
Second: CC1=C(C(=O)Nc2ccc(Br)cc2)C(c2ccc(Cl)cc2Cl)NC(=O)N1C (stereo not shown)
The “% Inhibition @ 10 uM” value of the first is higher: 3.8% for the first, 1.43% for the second.

Compared with `Cc1ccc(-c2nc3n(n2)C(=O)CC(c2ccc4c(c2)OCO4)S3)cc1` (stereo not shown), `Cc1ccc(-c2nn3c(C4COc5ccccc5O4)nnc3s2)cc1C` (stereo not shown) is higher in “% Inhibition @ 10 uM” value: -7.02% for the first, 2.89% for the second.

First: O=C1c2ccccc2C(=O)N1CCCCON1C(=O)c2ccccc2C1=O
Second: O=C1c2ccccc2C(=O)N1CC1c2ccccc2CCN1S(=O)(=O)c1cccc2nsnc12 (stereo not shown)
The “% Inhibition @ 10 uM” value of the first is lower: -5.34% for the first, -4.96% for the second.

Going from `CC(C)C[C@@H](C(=O)NCC#N)c1cccc(-c2cccc(OCCN(C)C)c2)c1` to `CC(C)C[C@H](NS(=O)(=O)Cc1ccccc1)C(=O)NCC#N`, the “% Inhibition @ 10 uM” value rises from -3.04% to 0.174%.

Going from `CCN(CC)S(=O)(=O)c1nnc(NC(=O)Cc2ccccc2)s1` to `Cc1oc(-c2ccccc2F)nc1CS(=O)(=O)CC(=O)NCCCc1ccccc1`, the “% Inhibition @ 10 uM” value falls from 1.68% to -0.138%.

Compared with `COC(=O)C1C(=O)NCC1c1ccc(C)cc1` (stereo not shown), `CC(=O)c1cc2c(cc1NC(=O)C(C)Oc1ccc(C)cc1)OCO2` (stereo not shown) is lower in “% Inhibition @ 10 uM” value: -0.546% for the first, -2.76% for the second.

Going from `Cc1nn(C)c(C)c1C1C(C#N)=C(N)OC2=C1C(=O)CC(C)(C)C2` (stereo not shown) to `CCOC(=O)C1=C(N)OC2=C(C(=O)CC(C)(C)C2)C1c1cccc(F)c1` (stereo not shown), the “% Inhibition @ 10 uM” value rises from 1.03% to 2.54%.

First: CS(=O)(=O)N(Cc1ccccc1Cl)c1ccc(C(=O)N2CCc3ccccc3C2)cc1
Second: O=C(CN(Cc1ccc(Cl)cc1)S(=O)(=O)c1ccc(Cl)cc1)Nc1ccccc1
The “% Inhibition @ 10 uM” value of the first is lower: -6.62% for the first, 4.42% for the second.

Compared with `Nc1ncc(Br)cc1S(=O)(=O)N1CCC(Cc2ccccc2)CC1`, `CC1CCN(C(=O)C(Cc2ccccc2)NS(=O)(=O)c2cccc3nsnc23)CC1` (stereo not shown) is lower in “% Inhibition @ 10 uM” value: 2.32% for the first, -3.23% for the second.

Compared with `O=C(NCC1CCCO1)c1ccc(N2C(=O)C3CCCCC3C2=O)cc1` (stereo not shown), `O=C(NCC1CCCO1)C1CCN(S(=O)(=O)c2cccc3cccnc23)CC1` (stereo not shown) is lower in “% Inhibition @ 10 uM” value: 1.21% for the first, -3.58% for the second.

Compared with `COc1ccc(N/C(=N/S(=O)(=O)c2ccccc2)C(Cl)(Cl)Cl)cc1`, `CCOc1ccc(NC(=O)c2ccc(NS(=O)(=O)c3cccc(F)c3)cc2)cc1` is lower in “% Inhibition @ 10 uM” value: -1.38% for the first, -5.3% for the second.

Going from `CCN(CC)CCn1c(=O)c2nc[nH]c2n(C)c1=O` to `Cn1c(=O)n(CC(=O)O)c(=O)c2c1nc1n2CCS1`, the “% Inhibition @ 10 uM” value rises from -1.22% to 0.758%.

First: CN(CC(=O)NCCC1=CCCCC1)S(=O)(=O)c1ccc(F)cc1
Second: CC(NC(=O)c1nc(CS(=O)(=O)c2ccc(Cl)cc2)no1)c1ccccc1 (stereo not shown)
The “% Inhibition @ 10 uM” value of the first is lower: 1.03% for the first, 1.76% for the second.

First: O=C(CSc1nc2c(c(=O)n1Cc1ccccc1)SCC2)NCc1ccc2c(c1)OCO2
Second: O=c1cc(-c2ccccc2)c2ccc3c(c2o1)CN(Cc1ccc2c(c1)OCO2)CO3
The “% Inhibition @ 10 uM” value of the first is lower: 0.292% for the first, 0.895% for the second.

First: COc1ccc2nc(C)c3c(c2c1)OC(C)C3 (stereo not shown)
Second: COc1cc(-c2nc(O)nc3ccc(Cl)cc23)cc(OC)c1OC
The “% Inhibition @ 10 uM” value of the first is lower: -4.32% for the first, 1.19% for the second.

Going from `CCOC(=O)C1CCCCN1CC(c1ccccc1)c1ccccc1` (stereo not shown) to `c1ccc(-c2cn(-c3ccccc3)c3ncnc(NCC4CCCO4)c23)cc1` (stereo not shown), the “% Inhibition @ 10 uM” value rises from -2.34% to 1.26%.

Compared with `CN(C)CC1Cc2ccccc2O1` (stereo not shown), `CN(C)CC(CN(C)C)OCc1ccccc1` is higher in “% Inhibition @ 10 uM” value: 2.26% for the first, 3.65% for the second.

First: CC(C(=O)NCc1cccc(Cl)c1)n1sc2ccccc2c1=O (stereo not shown)
Second: Cc1cccc(Cn2cc(/C=C3/NC(=O)NC3=O)c3ccccc32)c1
The “% Inhibition @ 10 uM” value of the first is lower: -2.94% for the first, -1.28% for the second.

Compared with `Cc1nc2c(c(C)c1CCC(=O)NCC(C)c1ccccc1)c(=O)n(C)c(=O)n2C` (stereo not shown), `COCCNC(=O)CCc1c(C)nc2c3c(C)cc(C)nc3nn2c1C` is higher in “% Inhibition @ 10 uM” value: -3.1% for the first, -2.45% for the second.

Compared with `Cc1ccc2nc3c(cc(C(=O)NC4CCCCC4)c(=N)n3C3CCCCC3)c(=O)n2c1`, `COc1ccc(-n2ncc(C(=O)NC3CCCC3)c2C2CCN(C(=O)OC(C)(C)C)CC2)cc1` is lower in “% Inhibition @ 10 uM” value: 1.97% for the first, -5.57% for the second.

Going from `CC(C(=O)O)N1C(=O)C2C3CC(C2C1=O)C1C(c2ccc(Cl)cc2)c2sc(O)nc2SC31` (stereo not shown) to `CN1C(=O)/C(=C/c2ccc(OCC(=O)O)cc2)S/C1=N/c1ccc(Cl)cc1`, the “% Inhibition @ 10 uM” value rises from 3.24% to 21.2%.

Going from `COC(=O)C#CC(CC(C)C)NC(=O)[C@H](CC(C)C)NC(=O)[C@H](CC(C)C)NC(=O)OCc1ccccc1` (stereo partly shown) to `CC(C)[C@H](NC(=O)c1ccc(-c2csc(N3CCN(C)CC3)n2)cc1)C(=O)NCC#N`, the “% Inhibition @ 10 uM” value falls from 0.079% to -1.61%.

Going from `Nc1ccc2nc(SCC(=O)Nc3ccccc3F)sc2c1` to `Nc1ccccc1SC(CC(=O)c1ccc(Br)cc1)c1cccc(Br)c1` (stereo not shown), the “% Inhibition @ 10 uM” value falls from 4% to -5.38%.

Compared with `CCOc1ccccc1NC(=O)C(CC)CC`, `CCOC(=O)c1c(Cl)nc2ccccc2c1O` is lower in “% Inhibition @ 10 uM” value: 2.48% for the first, -3.93% for the second.

Compared with `CC(=O)C1=C(C)N=C(S)NC1c1ccccc1` (stereo not shown), `COc1cc(OC)c(C2NC(S)=NC(C)=C2C(C)=O)cc1OC` (stereo not shown) is lower in “% Inhibition @ 10 uM” value: 1.7% for the first, -7.35% for the second.

Compared with `Cc1cc(/C=C2\SC(=O)NC2=O)c(C)n1C1CCCCC1`, `CCc1c(O)n(C2CCCCC2)c(SC)nc1=O` is higher in “% Inhibition @ 10 uM” value: -0.0494% for the first, 3.35% for the second.

First: O=C(O)c1ccc(N2CCC(c3ccccc3)=N2)cc1
Second: O=C(O)c1ccc(-n2cnc3cccnc32)cc1
The “% Inhibition @ 10 uM” value of the first is higher: 3% for the first, 0.0198% for the second.

Compared with `CC(C)(C)c1coc2cc3oc(=O)c4ccccc4c3cc12`, `CN1C(=O)c2[nH]nc(-c3ccccc3)c2C1c1cccc(O)c1` (stereo not shown) is lower in “% Inhibition @ 10 uM” value: -0.808% for the first, -2.84% for the second.

Compared with `CCc1ccc(OCC(=O)Nc2nccs2)cc1`, `O=S1(=O)N=C(NCC(O)COc2ccccc2)c2ccccc21` (stereo not shown) is higher in “% Inhibition @ 10 uM” value: -3.85% for the first, 3.35% for the second.

Compared with `CCCC1CCC(C2CCC(C(N)=O)CC2)CC1` (stereo not shown), `COc1ccc(C2Nn3c(C)nnc3SC2C(=O)N2CCOCC2)cc1` (stereo not shown) is lower in “% Inhibition @ 10 uM” value: 4.16% for the first, 0.0289% for the second.

Going from `Cc1nc2cc(-c3ccccc3)nn2c(C)c1CCC(=O)N1CCN(c2ccccn2)CC1` to `CCOC(=O)N1CCN(C(=O)c2cc(-c3ccc(OCC)cc3)nc3ccccc23)CC1`, the “% Inhibition @ 10 uM” value rises from -4.1% to 4.36%.

Compared with `CCOc1nc(Nc2ccc(Cl)cc2)nc(N2CCCCC2)n1`, `COP(=O)(OC)C(Nc1ccc([N+](=O)[O-])cc1)c1ccc(Cl)cc1` (stereo not shown) is lower in “% Inhibition @ 10 uM” value: 4.74% for the first, 1.7% for the second.

Going from `COc1ccc(/C=C/c2nc3scc(-c4cccs4)c3c(=O)o2)cc1` to `O=C(/C=C/c1ccc2c(c1)OCO2)N1CCN(CCN2C(=O)c3cccc4cccc(c34)C2=O)CC1`, the “% Inhibition @ 10 uM” value rises from -4.11% to 13.3%.

Compared with `Cc1nc(N)nc(O)c1CC(=O)O`, `CC(=O)/N=C(\Nc1nc(C)cc(C)n1)Nc1ccccc1Cl` is lower in “% Inhibition @ 10 uM” value: 2.1% for the first, -1.08% for the second.

Going from `Cc1sc2c(sc(C)[n+]2CCCS(=O)(=O)O)c1C` to `CCOC(=O)N1CCN(C(=O)Cn2nc(CC)n3c(cc4sccc43)c2=O)CC1`, the “% Inhibition @ 10 uM” value rises from -3.36% to -1.58%.

Going from `O=C(O)c1cccc(-n2cnnn2)c1` to `CC(=O)c1cccc(NC(=O)CN2CCOCC2)c1`, the “% Inhibition @ 10 uM” value falls from -0.687% to -3.24%.

Going from `CC1(C)C=Cc2c(c3c(c4c(=O)c(-c5ccc(O)cc5)coc24)OC(C)(C)CC3)O1` to `CC1(C)CC2(CC(c3cccs3)c3cc(Cl)c(O)cc3O2)NC(=S)N1` (stereo not shown), the “% Inhibition @ 10 uM” value falls from -1.5% to -4.49%.

First: CCOc1ccc(C2C=C(c3cccnc3)Nc3nnnn32)cc1OC (stereo not shown)
Second: CCCCNc1nc2ccccc2c2nc(-c3cccnc3)nn12
The “% Inhibition @ 10 uM” value of the first is lower: -3.23% for the first, 0.981% for the second.

First: CC1NC(=O)C(C#N)=C(SCc2ccccc2)S1 (stereo not shown)
Second: N#Cc1ccc(-c2nc3cc(Cl)c(F)cc3[nH]2)cc1
The “% Inhibition @ 10 uM” value of the first is lower: -1.72% for the first, 1.84% for the second.

First: O=C(c1ccc(Cl)c([N+](=O)[O-])c1)N1CCOCC1
Second: CC(Nc1nc2ccccc2n2nnnc12)C12CC3CC(CC(C3)C1)C2 (stereo not shown)
The “% Inhibition @ 10 uM” value of the first is lower: -2.03% for the first, 5.84% for the second.

Source: article PMC6919601, “Identification of Plasmodium dipeptidyl aminopeptidase allosteric inhibitors by high throughput screening” (PLoS ONE, 2019)
